According to PubChem BioAssay (NCATS):
The shares of active, inactive and inconclusive entries below differ from those in the screen. A potency beside an inconclusive call is a rough fit, not a confirmed value. Active and inactive are the calls of the source. The call rests on the fitted dose curve; in most records, active means well fitted activation curve with a large enough effect; inconclusive means small, poorly fitted or top-dose-only effect; inactive means no such curve, though single readings can be large or run the other way.

What follows are compounds tested against Cellular tumor antigen p53 (Homo sapiens) (UniProt P04637) (assay: Primary qHTS for small molecule compounds that upregulate eGFP-tagged delta133p53alpha (in N-terminal) cells. (AID 2060322; further: nearly all actives have a fitted effect of over 75% in size;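 on activation: series mostly up to about 56 µM; 0% = DMSO vehicle and 100% = reference activator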)). Conditions: NCI-H358 eGFP-delta133p53alpha fluorescence, 24 h; activation: stronger effect = higher value.
In short: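 NCI-H358 cells pre-induced 24 h with 10 ng/ml doxycycline to express N-terminal eGFP-delta133p53alpha, then dosed 24 h at 37C without doxycycline; fixed, Hoechst-stained, GFP intensity by laser scanning cytometry, normalized to DMSO (0%) and 57.5 uM 5-azacytidine (100%).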
Potency means the concentration at half of the fitted maximal effect; tags describe the fitted curve by direction and shape.

Sequence of UniProt P04637 (P04637 whole entry, looked up): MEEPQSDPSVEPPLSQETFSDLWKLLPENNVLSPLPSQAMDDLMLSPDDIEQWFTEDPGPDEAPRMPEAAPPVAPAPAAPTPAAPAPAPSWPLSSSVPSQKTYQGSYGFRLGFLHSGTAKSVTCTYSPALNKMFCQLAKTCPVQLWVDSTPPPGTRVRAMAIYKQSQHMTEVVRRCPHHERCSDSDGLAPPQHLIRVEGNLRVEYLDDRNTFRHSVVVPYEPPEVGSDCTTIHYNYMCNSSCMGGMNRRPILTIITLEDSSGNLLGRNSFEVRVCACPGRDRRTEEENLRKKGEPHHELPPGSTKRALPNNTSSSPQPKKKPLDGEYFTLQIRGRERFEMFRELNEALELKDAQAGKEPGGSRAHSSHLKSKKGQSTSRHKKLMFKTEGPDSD

Row | Compound | Potency | activation
1 | O=C(C[C@@H]1NCCC[C@H]1O)Cn1cnc2ccccc2c1=O | active: 0.239 µM | 
2 | CCCCCn1cc(C(=O)c2cccc3ccccc23)c2ccccc21 |  | inactive: 20.5%
3 | COC1CC(OC2CCC3(C=O)C(CCC4C3CCC3(C)C(C5=CC(=O)OC5)CCC43O)C2)OC(C)C1O (centres undefined) | inconclusive: 0.415 µM [activator, full curve] | 
4 | C=C1[C@@H](O)[C@]2(O)OC[C@]34C2[C@]2(C)C(C[C@H]3OC(=O)[C@H](O)[C@@]14O)C(C)=CC(=O)[C@H]2O (some centres undefined) | inconclusive: 18.5 µM [activator, single point] | 
5 | C=C1[C@@H](C)[C@H]2[C@H](Cc3ccccc3)NC(=O)[C@]23OC(=O)/C=C/C(=O)CCC[C@@H](C)C/C=C/[C@H]3[C@@H]1O | inconclusive: 23.9 µM [activator, partial curve, poor fit] | 
6 | CC(C)(C)OC(=O)NC1[C@H]2CNC[C@@H]12 (some centres undefined) |  | inactive: -12.9%
7 | CC1=CC(=O)[C@@H](O)[C@]2(C)C3[C@@H](O)[C@@H]4OC(=O)[C@@H]([C@H]4C)[C@]3(C)C(=O)[C@H](O)[C@@H]12 (some centres undefined) | inconclusive: 11.7 µM [activator, partial curve, poor fit] | 
8 | C[C@@H]1O[C@@H](O[C@H]2CC[C@@]3(C)C(CC[C@@H]4C3CC[C@]3(C)[C@@H](C5=CC(=O)OC5)CC[C@]43O)C2)[C@H](O)[C@H](O)[C@H]1O (some centres undefined) | active: 1.65 µM | 
9 | CC(=O)OC1CC(O)C2(C)C(CC(OC(C)=O)C3(C)C2CCC2(C)C(c4ccoc4)C(=O)C4OC423)C1(C)C (centres undefined) | inconclusive: 18.5 µM [activator, single point] | 
